The source of these data is a collection of fitness landscapes (doi:10.1016/j.celrep.2020.107928).

Whole data set: some 81,000 sequences, median “one-hybrid fitness for binding NBS DNA” near -0.1, cut for the highest 2% near 0.36. Some of the results follow.

B1: Caulobacter ParB omega fusion; a variant is named by its letters at X, in order, B8GW30 (parent)
chain: MESVVVGEPGMSEGRRGLGRGLSALLGEVDAAPAQAPGEQLGGSREAPIEILQRNPDQPRRTFREEDLEDLSNSIREKGVLQPILVRPSPDTAGEYQIVAGERAWRAAQRAGLKTVPIMVRELDDLAVLEIGIIENVQRADLNVLEEALSYKVLMEKFERTQENIAQTIGKSXSHVANXMRLLXLPDEVQSYLVSGELTAXHARAIAAAADPVALAKQIIEGGLSVRETEALARKAPNLSAGKSKGGRPPRVKDTDTQALESDLSSVLGLDVSIDHRGSTGTLTITYATLEQLDDLCNRLTRGI

The variants in the test derive from B1. Briefly: one-hybrid fitness for binding NBS DNA (the Noc-binding site; scaled: cognate 1, non-cognate 0); higher = stronger binding. To be noted: with NBS DNA site. In short, it runs like this: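 Fitness is the rescaled log change in variant-to-wild-type read ratio, measured by Illumina sequencing of plasmids before and after bacterial one-hybrid selection. The scale puts cognate at 1 and non-cognate at 0. Selection of Caulobacter ParB libraries, four specificity codons randomised, took place in E. coli USO with a HIS3 reporter, site 19 bp from the promoter, over 48 hours at 37°C on M9-minus-histidine with 0.1 mM IPTG and 5 mM 3-AT.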
FSDG: the “one-hybrid fitness for binding NBS DNA” value was at most 0.2.
Then VRSH, with at most 0.2; and TTST, with at most 0.2.
As for PNLT, the “one-hybrid fitness for binding NBS DNA” value was at most 0.2.
Take SNND: the “one-hybrid fitness for binding NBS DNA” value is at most 0.2.
Then NLRR, with at most 0.2; and NAMP, with at most 0.2.
As for AQLT, the “one-hybrid fitness for binding NBS DNA” value is at most 0.2.
For QAFF, the “one-hybrid fitness for binding NBS DNA” value was at most 0.2.
Turning to DLYV, the “one-hybrid fitness for binding NBS DNA” value is at most 0.2.
As to FPES, the “one-hybrid fitness for binding NBS DNA” value was at most 0.2.
For ISAP, the “one-hybrid fitness for binding NBS DNA” value was at most 0.2.
With PQDR, the “one-hybrid fitness for binding NBS DNA” value is at most 0.2.
LKDG: the “one-hybrid fitness for binding NBS DNA” value was at most 0.2.
As to AQRK, the “one-hybrid fitness for binding NBS DNA” value is at most 0.2.
On to KAVG, for which the “one-hybrid fitness for binding NBS DNA” value is at most 0.2.
The result for MRQA reads at most 0.2; that for HIMT, at most 0.2.
Turning to RGQF, the “one-hybrid fitness for binding NBS DNA” value was at most 0.2.
The result for SQSP reads at most 0.2; that for NVDG, at most 0.2.
With TFRM, the “one-hybrid fitness for binding NBS DNA” value was at most 0.2.
On to QCMC, for which the “one-hybrid fitness for binding NBS DNA” value is 0.214.
In the case of DRPK, the “one-hybrid fitness for binding NBS DNA” value is at most 0.2.
As to FSAM, the “one-hybrid fitness for binding NBS DNA” value was at most 0.2.
In the case of RHWL, the “one-hybrid fitness for binding NBS DNA” value was at most 0.2.
For the variant TPLE, the “one-hybrid fitness for binding NBS DNA” value is at most 0.2.
For NAFI, the “one-hybrid fitness for binding NBS DNA” value is at most 0.2.
On to LQKT, for which the “one-hybrid fitness for binding NBS DNA” value was at most 0.2.
As to QCKY, the “one-hybrid fitness for binding NBS DNA” value was 0.59.
As for VSFR, the “one-hybrid fitness for binding NBS DNA” value is at most 0.2.
As for PSGM, the “one-hybrid fitness for binding NBS DNA” value is at most 0.2.
Take QAFA: the “one-hybrid fitness for binding NBS DNA” value was at most 0.2.
As for RKNE, the “one-hybrid fitness for binding NBS DNA” value is at most 0.2.
GHTQ: the “one-hybrid fitness for binding NBS DNA” value was at most 0.2.
For the variant ATGW, the “one-hybrid fitness for binding NBS DNA” value was at most 0.2.
For the variant ILPY, the “one-hybrid fitness for binding NBS DNA” value is at most 0.2.
Take RIEM: the “one-hybrid fitness for binding NBS DNA” value was at most 0.2.
Then GTSI, with at most 0.2; and MEQR, with at most 0.2.
Take RFLQ: the “one-hybrid fitness for binding NBS DNA” value was at most 0.2.
Then ESCY, with at most 0.2; and LRDS, with at most 0.2.
Then KLLR, with at most 0.2.
As to QTPA, the “one-hybrid fitness for binding NBS DNA” value was at most 0.2.
Turning to HNKS, the “one-hybrid fitness for binding NBS DNA” value is at most 0.2.
Take AMQT: the “one-hybrid fitness for binding NBS DNA” value was at most 0.2.
On to MRSG, for which the “one-hybrid fitness for binding NBS DNA” value is at most 0.2.
Regarding QQVV, the “one-hybrid fitness for binding NBS DNA” value is at most 0.2.
The result for FGRW reads at most 0.2; that for QLRF, 0.211; that for YVYF, at most 0.2.
As for VRLA, the “one-hybrid fitness for binding NBS DNA” value is at most 0.2.
As to HTIF, the “one-hybrid fitness for binding NBS DNA” value was at most 0.2.
For the variant RQRE, the “one-hybrid fitness for binding NBS DNA” value is at most 0.2.
Consider KDTS, for which the “one-hybrid fitness for binding NBS DNA” value was at most 0.2.
Consider SLEC, for which the “one-hybrid fitness for binding NBS DNA” value is at most 0.2.
For the variant REVA, the “one-hybrid fitness for binding NBS DNA” value is at most 0.2.
As for GPVI, the “one-hybrid fitness for binding NBS DNA” value is at most 0.2.
Regarding NYAY, the “one-hybrid fitness for binding NBS DNA” value is at most 0.2.
Then AVGD, with at most 0.2.
For the variant IHDG, the “one-hybrid fitness for binding NBS DNA” value was at most 0.2.
On to LKEN, for which the “one-hybrid fitness for binding NBS DNA” value was at most 0.2.
The result for ANYM reads at most 0.2.
On to GHVW, for which the “one-hybrid fitness for binding NBS DNA” value is at most 0.2.
As to GCWS, the “one-hybrid fitness for binding NBS DNA” value is at most 0.2.
With HPYD, the “one-hybrid fitness for binding NBS DNA” value was at most 0.2.
On to GLKM, for which the “one-hybrid fitness for binding NBS DNA” value was at most 0.2.
Take QKMW: the “one-hybrid fitness for binding NBS DNA” value is at most 0.2.
Then QSSS, with 0.353; and GTVW, with at most 0.2; and HIHG, with at most 0.2.
With IFRN, the “one-hybrid fitness for binding NBS DNA” value was at most 0.2.
The result for NHRK reads at most 0.2; that for YHYG, at most 0.2.
The result for ACSE reads at most 0.2.
For the variant PHSA, the “one-hybrid fitness for binding NBS DNA” value is at most 0.2.
As for EANL, the “one-hybrid fitness for binding NBS DNA” value is at most 0.2.
In the case of KKRT, the “one-hybrid fitness for binding NBS DNA” value was 0.381.
Turning to APTV, the “one-hybrid fitness for binding NBS DNA” value is at most 0.2.
The result for NMNW reads at most 0.2.
The result for TFRL reads at most 0.2; that for NTPS, at most 0.2; that for FLGG, at most 0.2.
As for CRRQ, the “one-hybrid fitness for binding NBS DNA” value was at most 0.2.
On to WSHR, for which the “one-hybrid fitness for binding NBS DNA” value was at most 0.2.
The result for TQTL reads at most 0.2; that for LNLT, at most 0.2.
For the variant NALM, the “one-hybrid fitness for binding NBS DNA” value is at most 0.2.
Take ILPV: the “one-hybrid fitness for binding NBS DNA” value was at most 0.2.
On to IQPT, for which the “one-hybrid fitness for binding NBS DNA” value was at most 0.2.
For TQYF, the “one-hybrid fitness for binding NBS DNA” value was at most 0.2.
Then HTWC, with at most 0.2.
Take LRMK: the “one-hybrid fitness for binding NBS DNA” value was at most 0.2.
LHGW: the “one-hybrid fitness for binding NBS DNA” value was at most 0.2.
With PHAM, the “one-hybrid fitness for binding NBS DNA” value is at most 0.2.
In the case of SVLL, the “one-hybrid fitness for binding NBS DNA” value was at most 0.2.
For the variant HRQG, the “one-hybrid fitness for binding NBS DNA” value is at most 0.2.
